The values that follow come from article PMC7041945 (2020).

The test has as its target T1, MPZ-ecto peptide (Homo sapiens, UniProt P25189).
T1 chain: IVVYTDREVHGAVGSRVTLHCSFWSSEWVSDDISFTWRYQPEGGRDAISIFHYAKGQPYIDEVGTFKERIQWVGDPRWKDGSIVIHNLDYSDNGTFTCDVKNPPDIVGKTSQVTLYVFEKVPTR
Nature of the test: fluorescence quenching.

B1: DR5 ECD (protein)
chain: not shown
For orientation: Kd means the equilibrium constant for the complex coming apart. B1: the Kd is 109 µM.
